# Experimental data reported in the supplement of paper PMC4723716.
# ± gives the uncertainty stated by the source. Whole data set: some 9,900 compounds, median “viability index relative to DMSO control” near 1, cut for the lowest 2% near 0.85. The list shows a part of the results.
# System: Plasmodium falciparum NF54 stage V gametocytes
# Assay: viability index relative to DMSO control (fraction); higher = less gametocyte killing
# Details: 2.5 µM, incubation time: 72 h
# Procedure, shortened: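 Gametocytes (P. falciparum NF54, stage V) were treated with compound at 2.5 µM for 72 hr at 37°C in low oxygen, in serum-free medium at 0.75% gametocytemia and 1.25% hematocrit. Counts of 20–70 µm2 red particles, taken from one field per well after MitoTracker Red CMXRos with saponin, were divided by the plate mean of solvent-only wells. This ratio is the viability index.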
# [1] = library set: Broad Institute DOS
SMILES,viability index [1],viability index (library set: Broad Institute Blood Stage)
C[C@@H]1CN([C@H](C)CO)C(=O)c2c(c3ccccc3n2C)-c2ccccc2CO[C@@H]1CN(C)S(=O)(=O)c1ccc([N+](=O)[O-])cc1,0.933 ± 0.0098,–
O=C(C[C@@H]1CC[C@H]2[C@@H](COC[C@@H](O)CN2CCC(F)(F)F)O1)NCc1ccc2c(c1)OCO2,1.051 ± 0.0041,–
CC(C)C#Cc1ccc([C@@H]2[C@H](CO)N3C(=O)CN(C(=O)Cc4ccccc4)C[C@@H]23)cc1,1.1 ± 0.016,–
COc1ccc(C[C@H]2CCn3cc(nn3)COC[C@H](C)NC2=O)cc1,0.976 ± 0.055,–
CC(=O)N1[C@@H]2Cn3c(ccc(-c4cccnc4)c3=O)[C@H]1[C@@H](C(=O)NC1Cc3ccccc3C1)[C@@H]2CO,1.11 ± 0.013,–
CCCNC(=O)N1C[C@@]2(C1)CN([C@H](CO)c1c2c2ccc(OC)cc2n1C)S(C)(=O)=O,0.962 ± 0.02,–
CS(=O)(=O)N1[C@@H](CO)[C@@H](c2ccccc2)C12CN(Cc1cc(F)ccc1F)C2,1.04 ± 0.031,–
C[C@H](CO)N1C[C@H](C)[C@@H](CN(C)S(C)(=O)=O)Oc2ncc(-c3ccc(F)cc3)cc2C1=O,1.04 ± 0.074,–
O=C(C1CCC1)N1C[C@@H]2[C@H](c3ccccc31)[C@@H](CO)N2C(=O)Nc1cccc(F)c1,1 ± 0.058,–
O=C(C[C@H]1C=C[C@H](NC(=O)c2ccc3c(c2)OCO3)[C@H](CO)O1)NC1Cc2ccccc2C1,1 ± 0.1,–
Cc1noc(C)c1NC(=O)N(C)C[C@@H]1OCc2ccccc2-c2c(n(C)c3ccccc23)C(=O)N([C@H](C)CO)C[C@H]1C,1.03 ± 0.087,–
COc1ccc(S(=O)(=O)N2C[C@H](O)COC[C@H]3O[C@@H](CC(=O)N[C@H]4CCN(Cc5ccccc5)C4)CC[C@@H]32)cc1,1.02 ± 0.037,–
CO[C@H]1CN(C)C(=O)c2cc(NC(=O)c3nc4ccccc4s3)ccc2OC[C@H](C)NC[C@H]1C,1.12 ± 0.012,–
O=C(CC1CC1)N1CC[C@@H]2[C@H](CO)Nc3ccc(-c4ccc(F)cc4)cc3[C@@H]21,1.11 ± 0.022,–
C[C@H](CO)N1C[C@H](C)[C@@H](CN(C)C)Oc2ccc(NS(C)(=O)=O)cc2C1=O,1.04 ± 0.022,–
Cc1nn(C)cc1NC(=O)C[C@H]1CC[C@H]2[C@@H](COc3ccc(NC(=O)C4CCOCC4)cc3C(=O)N2C)O1,1.07 ± 0.015,–
C[C@@H]1CN([C@@H](C)CO)C(=O)c2cccc(NC(=O)c3nc4ccccc4s3)c2O[C@H]1CN(C)C(=O)Nc1ccc(C(F)(F)F)cc1,–,0.811 ± 0.058
O=C(C[C@@H]1CC[C@@H]2NC[C@H](O)COC[C@H]2O1)NCCN1CCCCC1,1.05 ± 0.019,–

SMILES,viability index [1],viability index (library set: Broad Institute Blood Stage)
O=C(O)C[C@@H]1C[C@@H]2c3cc(NC(=O)Nc4ccc(C(F)(F)F)cc4)ccc3O[C@@H]2[C@H](CO)O1,1.11 ± 0.07,–
COC(=O)C[C@@H]1C[C@H]2c3cc(NC(=O)c4ccc5c(c4)OCO5)ccc3O[C@H]2[C@H](CO)O1,1.01 ± 0.12,–
N#C[C@@H]1[C@H](c2ccc(C#Cc3cccc(F)c3)cc2)[C@H](CO)N1C(=O)C1CCOCC1,1.07 ± 0.058,–
CCCNC(=O)N1C[C@H]2[C@@H](c3ccccc31)[C@@H](CO)N2C(=O)Nc1ccccc1F,1.04 ± 0.031,–
CCC(=O)N[C@@H]1CC[C@@H](CC(=O)NCc2ccccc2F)O[C@@H]1CO,1.09 ± 0.16,–
C[C@@H]1CCCCO[C@H](CN(C)CC2CCCCC2)[C@@H](C)CN([C@H](C)CO)C(=O)c2cc(NS(C)(=O)=O)ccc2O1,1.11 ± 0.057,–
CC(C)NC(=O)N1[C@H](CO)[C@@H](c2ccccc2)[C@H]1CN(C)C(=O)c1cccnc1,1.03 ± 0.048,–
C[C@@H]1CN([C@@H](C)CO)C(=O)CCCn2nncc2CO[C@@H]1CN(C)C(=O)c1cc(-c2ccccc2)on1,0.975 ± 0.05,–
COC(=O)C[C@H]1C[C@H]2c3cc(NC(=O)c4ccc5c(c4)OCO5)ccc3O[C@H]2[C@@H](CO)O1,1.041 ± 0.005,–
CN1C(=O)c2cc(NC(=O)c3cscn3)ccc2OC[C@H]2O[C@H](CC(=O)N3CCOCC3)CC[C@H]21,1.15 ± 0.13,–
COc1ccc(S(=O)(=O)Nc2ccc3c(c2)C(=O)N([C@@H](C)CO)C[C@H](C)[C@@H](CN(C)Cc2ccc(C(F)(F)F)cc2)OCCCC[C@H](C)O3)cc1,0.917 ± 0.11,–
CO[C@H]1CN(C)C(=O)c2ccc(NC(=O)c3ccno3)cc2OC[C@@H](C)N(S(C)(=O)=O)C[C@@H]1C,1.089 ± 0.0036,–
C[C@H]1CN([C@@H](C)CO)C(=O)c2ccccc2-c2ccccc2CO[C@H]1CN(C)Cc1ccc(Oc2ccccc2)cc1,0.867 ± 0.082,–
Cc1ccc(S(=O)(=O)Nc2ccc3c(c2)CC(=O)N([C@@H](C)CO)C[C@H](C)[C@H](CN(C)S(=O)(=O)c2ccccc2)O3)cc1,0.912 ± 0.092,–
O=C(Nc1ccc2c(c1)[C@@H]1C[C@H](CC(=O)N3CCCCC3)O[C@H](CO)[C@@H]1O2)NC1CCCCC1,1.05 ± 0.014,–
CO[C@@H]1CN(C)C(=O)c2ccc(NC(=O)NC(C)C)cc2OC[C@@H](C)N(Cc2ccc(-c3ccccn3)cc2)C[C@H]1C,1.03 ± 0.023,–
C/C=C/c1ccc2c(c1)[C@H]1[C@H](CCN1C(=O)c1ccc3c(c1)OCO3)[C@H](CO)N2,1.08 ± 0.089,–
